Laboratory results reported in PubChem BioAssay AID360 (National Center for Advancing Translational Sciences (NCATS), 2006).
The campaign covered roughly 48,000 compounds. About 550 (1.1%) were called active. Another 4% or so got no clear call; they are omitted. No stated cut-off is given here; in the data, active means potency below about 15 µM; inconclusive means mostly about 16 µM to 33 µM; inactive means weaker than that. Some of the results follow.

Biological target: Lysosomal acid glucosylceramidase (Homo sapiens) (UniProt P04062)
Sequence of UniProt P04062 (P04062 whole entry, looked up): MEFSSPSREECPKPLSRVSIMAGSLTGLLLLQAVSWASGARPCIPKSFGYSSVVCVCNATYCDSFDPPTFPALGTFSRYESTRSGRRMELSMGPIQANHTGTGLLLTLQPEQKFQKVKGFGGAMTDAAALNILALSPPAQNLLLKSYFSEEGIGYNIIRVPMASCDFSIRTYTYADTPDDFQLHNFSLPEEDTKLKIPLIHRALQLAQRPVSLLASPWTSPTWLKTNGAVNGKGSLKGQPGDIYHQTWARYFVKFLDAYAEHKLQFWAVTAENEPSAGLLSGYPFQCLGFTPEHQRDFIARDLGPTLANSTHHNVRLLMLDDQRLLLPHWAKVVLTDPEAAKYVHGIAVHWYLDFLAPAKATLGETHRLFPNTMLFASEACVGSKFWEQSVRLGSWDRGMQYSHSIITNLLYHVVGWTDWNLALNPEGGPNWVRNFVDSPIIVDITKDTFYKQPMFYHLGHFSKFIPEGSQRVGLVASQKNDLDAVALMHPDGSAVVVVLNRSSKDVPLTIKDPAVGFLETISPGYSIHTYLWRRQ
Experiment: Glucocerebrosidase;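 further: the screen sought inhibitors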
Settings: purified enzyme, resorufin glucoside fluorescence (screen aimed at inhibitors), 20 min
How it was run: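 Compounds titrated against 0.2 nM normal enzyme, 30 uM resorufin beta-D-glucopyranoside substrate, citrate/phosphate buffer with taurocholate and tween-20, pH 5.9. Reaction ran 20 min at room temperature; fluorescence (Ex 548/Em 600) gave AC50.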
Potency means the concentration at half of the fitted maximal effect.

Potency, inactive:
CCC(C)(C)NC(=O)CN(C(=O)CNS(=O)(=O)c1ccccc1)c1ccccc1
CCOC(=O)c1[nH]c(CSc2nnnn2-c2ccccc2C)c(C(=O)OCC)c1C > 76.9 µM
O=S1(=O)N=C(SCCO)c2ccccc21 > 76.9 µM
Cc1ccc(NC(=O)c2nc[nH]c2C(=O)N2CCCCC2)c(C(=O)c2ccccc2)c1 > 76.9 µM
CCOc1ccc2[nH]c(=O)c(CN(Cc3cccnc3)C(=O)Nc3ccccc3OC)cc2c1 > 76.9 µM
CCOC(=O)N1CCN(C(=O)c2ccc(C)c(S(=O)(=O)Nc3ccccc3)c2)CC1 > 76.9 µM
CC(=O)Nc1ccc(C)cc1NC(C)=O > 76.9 µM
COc1ccccc1N1CCN(CC(=O)c2c(C)[nH]c3cc(C)ccc23)CC1 > 76.9 µM
COCc1nc2ccccc2n1CCOc1ccccc1OC > 76.9 µM
Cc1ccc(NC(=O)N(Cc2ccco2)C(C)c2ccco2)cc1C (centres undefined) > 76.9 µM
Cc1nc(N)nc(C)c1Cc1ccccc1 > 76.9 µM
O=C(NCc1ccco1)c1nc2ncccn2n1 > 76.9 µM
COc1cc(SC)ccc1C(=O)NCC1CCCO1 (centres undefined) > 76.9 µM
Cc1sc2ncn(CC(=O)NCc3ccccn3)c(=O)c2c1S(=O)(=O)N1CCOCC1 > 76.9 µM
N#Cc1nc(COc2ccc(-c3ccccc3)cc2)oc1NCc1cccnc1 > 76.9 µM
Cc1cc(-c2ccccc2)c(C#N)c(SCC(N)=O)n1 > 76.9 µM
COc1ccc(CCNS(=O)(=O)c2ccc3c(c2)CCN3C(=O)CCC(=O)O)cc1OC > 76.9 µM
CCCc1cc2c(c(NC(C)=O)n1)c(=O)oc1ccccc12 > 76.9 µM
C=C(C)Cn1c(Sc2nnc(C)s2)nc2c1c(=O)[nH]c(=O)n2C > 76.9 µM
Cc1c(C(=O)Nc2c(C)n(C)n(-c3ccccc3)c2=O)oc2ccccc12 > 76.9 µM
CCCCCCC1CC(CSc2ncn[nH]2)OC1=O (centres undefined) > 76.9 µM
COc1cc(C2C(=O)N(C3CCCC3)CC(=O)N2Cc2ccco2)ccc1OC(C)C (centres undefined) > 76.9 µM
CCc1nc(N2CCN(c3nc(C)cc(C)n3)CC2)c2oc3ccccc3c2n1
CCOc1ccccc1C1C(C(=O)OC)=C(N)OC2=C1C(=O)CCC2 (centres undefined) > 76.9 µM
Cc1ccc(NC(=O)CCC(C(=O)O)N2C(=O)c3ccccc3C2=O)cc1 (centres undefined) > 76.9 µM
O=C(c1cccc(F)c1)N1CCN(C(=O)c2nn3cccnc3c2Cl)CC1 > 76.9 µM
Cn1nnnc1SCC(=O)Nc1ccc(Cl)cc1Cl > 76.9 µM
Cc1ccc(-n2nc(-c3cccs3)cc2C(=O)NCC2CCCO2)c(C)c1 (centres undefined) > 76.9 µM
CCC(=O)Nc1c(C#N)c2nc3ccccc3nc2n1-c1ccccc1C > 76.9 µM
Cc1cc(C(=O)NC(C)C2CCCO2)cs1 (centres undefined) > 76.9 µM
CCOC(=O)Cc1csc(NC(=O)CSc2nnnn2-c2ccc(F)cc2)n1 > 76.9 µM
CCOc1ccccc1C(=O)N(C)Cc1cc2ccccc2[nH]c1=O > 76.9 µM
CC(C)N(Cc1ccccc1)S(=O)(=O)N(C)C > 76.9 µM
C=CCN(C(=O)c1ccccc1)c1ccc(OC)cc1 > 76.9 µM
Cc1ccc2[nH]c(=O)c(CN(CCCN3CCOCC3)Cc3nnnn3C3CCCC3)cc2c1 > 76.9 µM
Cc1cnc(C(=O)Nc2ccc(N3CCN(C(=O)OC(C)(C)C)CC3)cc2)cn1 > 76.9 µM
O=C(CSc1nnnn1-c1ccc2c(c1)OCCO2)c1cccc2c1OCCO2 > 76.9 µM
Cc1ccc(CCNC(=O)CCNS(=O)(=O)c2ccc3c(c2)oc(=O)n3C)cc1 > 76.9 µM
Brc1ccccc1-c1nnc(-c2cccnc2)o1 > 76.9 µM
Cc1noc(C)c1S(=O)(=O)N1CCC(C(=O)N(C)Cc2ccccc2)CC1 > 76.9 µM
CCN1CCCC1CNC(=O)C(NC(=O)C1CCC(C)CC1)C(C)C (centres undefined) > 76.9 µM
COCCOC(=O)C1=C(C)Nc2nc(C)nn2C1c1ccc(F)cc1 (centres undefined) > 76.9 µM
CCCCN1C(=O)CN(CCc2ccccc2)C(=O)C1c1ccc(OC)cc1 (centres undefined) > 76.9 µM
CCc1[nH]nc2c1C1(CCOC1C)C(C#N)=C(N)O2 (centres undefined) > 76.9 µM
COc1ccc(CCNc2oc(COc3ccc(F)cc3)nc2C#N)cc1
O=C(CN1C2=NCCN2c2ccccc21)c1ccc2c(c1)OCO2 > 76.9 µM
Cc1ccc(C(=O)OCC(=O)Nc2sc3c(c2C#N)CCCCC3)cc1NC(=O)c1ccco1 > 76.9 µM
Cc1ccc(CC2SC(=O)NC2=O)cc1Cl (centres undefined) > 76.9 µM
CCOc1cccc(NC(=O)C2CC(=O)N(C)C(=Nc3cccc(F)c3)S2)c1 (centres undefined) > 76.9 µM
O=C(O)CCc1ccc(-c2ccccc2)o1 > 76.9 µM
COc1ccc(NC(=O)CSc2nnc(-c3ccccn3)n2N)c(OC)c1 > 76.9 µM
CC1(C)Cc2ccccc2C(/C(=N/O)C(N)=O)=N1 > 76.9 µM
O=C(NCc1cccc(C(F)(F)F)c1)C1CCN(c2ncccn2)CC1 > 76.9 µM
CCc1c(C)nc2ncnn2c1N1CCCC(C(=O)NCCc2ccccc2)C1 (centres undefined) > 76.9 µM
CCSc1nc2c(c(=O)[nH]c(=O)n2C)n1C/C=C(/C)Cl > 76.9 µM
Cc1nc(NCc2ccc3c(c2)OCO3)c2nnn(Cc3ccccc3)c2n1 > 76.9 µM
c1ccc(N2CC[N+]3(CCCC3)CC2)nc1 > 76.9 µM
O=C(OCc1cc2ccccc2[nH]c1=O)c1ccccc1 > 76.9 µM
O=C(NC12CC3CC(CC(C3)C1)C2)C1=COCCO1 > 76.9 µM
